Laboratory results published in PubChem BioAssay AID485281 (National Center for Advancing Translational Sciences (NCATS), 2010).
The whole screen tested about 350,000 compounds, of which about 260 (0.074%) were called active. Inconclusive results, whose numbers are uncertain, are shown with a selection of clear calls. The call rests on the fitted dose curve; in most records, active means well fitted inhibition curve with a large enough effect; inconclusive means small, poorly fitted or top-dose-only effect; inactive means no such curve, though single readings can be large or run the other way. Where the call is inconclusive, the potency comes from a doubtful curve fit.

molecular target: Ferritin light chain (Equus caballus) (UniProt P02791); assay: qHTS Assay for Identification of Novel General Anesthetics; conditions: apoferritin/1-aminoanthracene competitive binding, fluorescence; activity change, negative = displacement: at 77.5 µM (top of the series); further: nearly all actives have a fitted effect of over 20% in size
Chain of UniProt P02791 (P02791 whole entry, looked up): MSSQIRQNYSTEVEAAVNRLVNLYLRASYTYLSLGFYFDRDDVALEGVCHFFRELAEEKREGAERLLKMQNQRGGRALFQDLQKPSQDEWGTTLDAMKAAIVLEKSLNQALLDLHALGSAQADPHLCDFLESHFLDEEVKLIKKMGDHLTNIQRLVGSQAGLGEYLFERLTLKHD
In short: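 Read-out: endpoint 1-AMA fluorescence, excitation 380 nm and emission 535 nm, after compounds sit 10 min at room temperature with 10 uM horse-spleen apoferritin in 50% saturated 1-AMA/PBS. Values come from four-parameter Hill fits.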
On the % scale 0 is the no-effect control and ±100 the full control effect; potency means the concentration at half of the fitted maximal effect; tags describe the fitted curve by direction and shape.

Activity change, negative = displacement, inactive:
CC(=O)Nc1cc(C(C)C)c(O)c(C(C)C)c1 -13.5%
Cc1cc(N/N=C/c2ccccc2[N+](=O)[O-])nc(-n2nc(C)cc2C)n1 -5.3%
Cc1ccc(C(=O)NC(=S)NCC2CCCO2)cc1Br (configuration not stated) 3.04%
Cc1ccccc1Cn1ccc(NC(=O)c2nn(C)cc2[N+](=O)[O-])n1 -8.46%
CC(CCc1ccccc1)NC(=O)C(=O)NCCO (configuration not stated) -5.59%
COc1cccc(C2OC(=O)c3ccccc3N2C(C)=O)c1OC(C)=O (configuration not stated) 6.21%
CC(=O)c1cccc(NC(=O)C(C)n2c(=O)cc(C)c3c(C)nn(-c4ccccc4)c32)c1 (configuration not stated) -7.88%
O=C(NC1CC1)C1=C[C@@H](c2csc3ccccc23)C[C@@H](OCCCCO)O1 1.61%
O=C(CSc1nc2ccccc2o1)Nc1nc(-c2ccccc2)cs1 -9.68%
O=C1COc2ccc(C(=O)COC(=O)c3ccco3)cc2N1 -7.17%
CC(Nc1oc(-c2ccco2)nc1C#N)c1ccccc1 (configuration not stated) -10.3%
C=CCn1c(SCC)nc2sc3c(c2c1=O)CCc1ccccc1-3 3.15%
O=C1N=C(N2CCC(Cc3ccccc3)CC2)S/C1=C/c1cn[nH]c1-c1ccccc1 -19.4%
CNC(=O)c1ccc(-c2nc(CN3CCc4ccccc43)c(C)o2)cc1 -15.1%
C=C1C(=O)OC2C=C(C)CCC=C(C)CCC12 (configuration not stated) 52.3%
O=S(=O)(NCC(c1ccco1)S(=O)(=O)c1ccccc1)c1cc(F)ccc1F (configuration not stated) -20.5%
Cc1cccc(-c2cc(C(=O)Nc3cccnc3)c3ccccc3n2)c1 -15.4%
CN(C)CCCNc1oc(-c2ccc(Cl)cc2)nc1C#N 5.45%
O=C1CC(c2ccc(O)c(O)c2)Oc2c1ccc(O)c2O (configuration not stated) -12.4%
COc1ccc(C(=O)NC(=S)Nc2ccc(CN3CCOCC3)cc2)cc1 -6.63%
CN(C)Cc1cc(O)c(CN(C)C)cc1O 0.206%
O=C1CCCC(=O)C1CS(=O)(=O)c1ccccc1 -12.3%

Potency, inactive:
CN1C(=O)Cc2cc(S(=O)(=O)N3CCN(c4ccc(Cl)cc4)CC3)ccc21

Potency, inconclusive:
CCCOC(=O)Nc1ccc(N2CCCCC2)cc1 44.7 µM [inhibitor, single point]
Cc1ccc(NC(=O)CS(=O)Cc2nc(-c3ccc(C)cc3)oc2C)cc1 (configuration not stated) 31.6 µM [inhibitor, partial curve]
CN(CCCNC(=O)c1cc2c(Cl)nc3ccccc3c2s1)Cc1ccccc1 31.6 µM [inhibitor, partial curve]
COc1ccc(NC(=O)Cn2nnc(C(=O)NCCc3ccccc3)c2N)cc1 3.55 µM [inhibitor, full curve]
O=C(NCCc1ccccc1)c1ccc2c(c1)N(Cc1ccc(F)cc1)C(=O)c1ccccc1S2(=O)=O 14.1 µM [inhibitor, full curve, poor fit]
COc1ccc(/C=C2/SC(=S)N(CCC(=O)O)C2=O)cc1 35.5 µM [inhibitor, partial curve]
S=C(Nc1ccc(Cl)cc1)c1nc2ccccc2s1 31.6 µM [inhibitor, partial curve]
COc1cc(/C=C2/NC(=O)N(Cc3ccccc3F)C2=O)cc(OC)c1O 56.2 µM [inhibitor, single point]
CCOC(=O)CSc1nnc(CSc2nc3ccccc3s2)n1C 44.7 µM [inhibitor, single point]
Cn1ccnc1SCCNC(=O)CCc1nnc(CCCCc2ccccc2)o1 35.5 µM [inhibitor, partial curve]
C/C=C(/C)C(=O)OC1c2c(ccc3ccc(=O)oc23)OC(C)(C)C1OC(=O)/C(C)=C\C (configuration not stated) 10 µM [inhibitor, partial curve]
CC1=C(C/C=C(\C)CCCC(C)CCCC(C)CCCC(C)C)C(=O)c2ccccc2C1=O (configuration not stated) 28.2 µM [inhibitor, single point]
CC1CCC2C(=O)N(c3ccc(NC4CCCCC4)c([N+](=O)[O-])c3)C(=O)C2C1 (configuration not stated) 31.6 µM [inhibitor, partial curve]
COc1ccccc1CNC(=O)COC(=O)c1cccc(S(=O)(=O)N2CCCCC2)c1 31.6 µM [inhibitor, single point]
Cc1ccc(-c2nc(CS(=O)(=O)CC(=O)N3CCc4ccccc4C3)c(C)o2)cc1 31.6 µM [inhibitor, single point]
CCOc1ccc(OCC)c(NC(=O)C2CCN(S(=O)(=O)c3c(C)noc3/C=C/c3ccccc3F)CC2)c1 7.94 µM [inhibitor, partial curve]
O=C(COc1ccccc1)NCCc1csc(-c2ccc(Cl)cc2)n1 50.1 µM [inhibitor, single point]
O=C(COC(=O)Cc1cccc(C(F)(F)F)c1)Nc1cccc2ccccc12 56.2 µM [inhibitor, single point]
O=C(NC(=S)Nc1ccc(Cl)cc1Cl)C1CC1 22.4 µM [inhibitor, partial curve]
Cc1ccccc1-c1nn2c(=O)cc(CN3CCN(C(=O)/C=C/c4ccccc4)CC3)nc2s1 15.8 µM [inhibitor, partial curve]
Cc1ccc(C2CC2C(=O)NN)cc1 (configuration not stated) 28.2 µM [inhibitor, single point]
Cc1cccc(N2C(N)=C(C#N)C(C#N)(C#N)C2c2ccccc2)c1 (configuration not stated) 10 µM [inhibitor, partial curve]
COc1ccc(C=O)cc1CSc1nnc(COc2cccc3cccnc23)o1 25.1 µM [inhibitor, partial curve]
Oc1[nH]c2ccccc2c1/C=N/c1nccs1 35.5 µM [inhibitor, partial curve]
COc1ccc(NC(=O)C2=CC(c3ccc(C)cc3)=NS(=O)(=O)N2C)cc1OC 11.2 µM [inhibitor, partial curve]
COc1ccc(CCn2c(=O)c3cccnc3n(CC(=O)Nc3ccc(C)c(F)c3)c2=O)cc1OC 6.31 µM [inhibitor, full curve]
O=C1CC(c2cccs2)c2ccc3ccccc3c2N1 (configuration not stated) 15.8 µM [inhibitor, partial curve]
O=C(CSc1nn(-c2ccc(F)cc2)c(=S)s1)N1CCN(C(=O)c2ccco2)CC1 44.7 µM [inhibitor, single point]
CCC(=O)Nc1ccc(S(=O)(=O)N2CCc3ccccc3C2)cc1 28.2 µM [inhibitor, partial curve]
Cc1cccc(OCCn2cnc(Cl)c2Cl)c1 50.1 µM [inhibitor, single point]
COc1ccccc1-c1cc2ccccc2[nH]1 56.2 µM [inhibitor, single point]
Cc1ccccc1OCc1nc2ccccc2c(=O)n1N 12.6 µM [inhibitor, partial curve]
O=C(Oc1ccc(C(=S)N2CCOCC2)cc1Cl)c1ccccc1F 56.2 µM [inhibitor, single point]
CC(=O)c1c(C)[nH]c(C(=O)OCC(=O)Nc2cc(C(F)(F)F)ccc2N2CCOCC2)c1C 39.8 µM [inhibitor, partial curve]
CNC(=O)NC(=O)CSc1cccc(C(F)(F)F)c1 39.8 µM [inhibitor, single point]
CCC1CCCCN1C(=O)CSc1n[nH]c(-c2ccccc2)n1 (configuration not stated) 15.8 µM [inhibitor, partial curve]
CN1CCc2c(sc3c2c(=O)n(-c2ccc(Cl)cc2)c2nncn32)C1 50.1 µM [inhibitor, single point]
O=c1[nH]c2ccccc2n2c(-c3ccccc3)nnc12 28.2 µM [inhibitor, partial curve]
CCSC1=C(C#N)C2(CCCC2)C(C#N)=C(N)N1 50.1 µM [inhibitor, partial curve]
O=C(Nc1ccc(Oc2ccc(C(F)(F)F)cn2)c(Cl)c1)C1CC1 15.8 µM [inhibitor, partial curve]
CSc1ncccc1C(=O)OCc1ccccc1 44.7 µM [inhibitor, partial curve, poor fit]
CCN(CC)S(=O)(=O)c1ccc(Cl)c(NC(=O)COC(=O)c2ccc([N+](=O)[O-])o2)c1 31.6 µM [inhibitor, partial curve]
O=C(Nc1ccc(Cl)cc1)OC(CN1CCCCC1)C(F)(F)F (configuration not stated) 25.1 µM [inhibitor, single point]
Cc1cc(C(=O)CSc2nnc(-c3ccncc3)n2-c2ccccc2)c(C)n1C 17.8 µM [inhibitor, partial curve]
Cc1nnc(SCc2c(Cl)cccc2Cl)n(N)c1=O 22.4 µM [inhibitor, single point]
Cc1ccc(CN2CCC(C(=O)Nc3ccc(Oc4cccnc4)cc3)CC2)cc1 25.1 µM [inhibitor, single point]

Potency, active:
CC1CCCN(S(=O)(=O)c2ccc(NC(=O)c3cccc(-n4cnnn4)c3)cc2)C1 (configuration not stated) 14.1 µM
O=[N+]([O-])c1ccc(CNc2ccc(Cl)cc2)s1 14.1 µM
O=C(OCn1nnc2ccccc2c1=O)C1CCCCC1 39.8 µM
